{"source": "PubChem BioAssay AID720708", "about": "(National Center for Advancing Translational Sciences (NCATS), 2013)", "note": "Out of some 360,000 compounds screened, about 660 (0.18%) were called active. The shares of active, inactive and inconclusive entries below differ from those in the screen. The call rests on the fitted dose curve; in most records, active means well fitted inhibition curve with a large enough effect; inconclusive means small, poorly fitted or top-dose-only effect; inactive means no such curve, though single readings can be large or run the other way. Potencies of inconclusive entries are left out as doubtful fits. On the % scale 0 is the no-effect control and ±100 the full control effect; potency means the concentration at half of the fitted maximal effect; tags describe the fitted curve by direction and shape.", "data": [{"target": "Rap guanine nucleotide exchange factor 4 (Homo sapiens) (UniProt Q8WZA2)", "sequence (Q8WZA2 whole entry, looked up)": "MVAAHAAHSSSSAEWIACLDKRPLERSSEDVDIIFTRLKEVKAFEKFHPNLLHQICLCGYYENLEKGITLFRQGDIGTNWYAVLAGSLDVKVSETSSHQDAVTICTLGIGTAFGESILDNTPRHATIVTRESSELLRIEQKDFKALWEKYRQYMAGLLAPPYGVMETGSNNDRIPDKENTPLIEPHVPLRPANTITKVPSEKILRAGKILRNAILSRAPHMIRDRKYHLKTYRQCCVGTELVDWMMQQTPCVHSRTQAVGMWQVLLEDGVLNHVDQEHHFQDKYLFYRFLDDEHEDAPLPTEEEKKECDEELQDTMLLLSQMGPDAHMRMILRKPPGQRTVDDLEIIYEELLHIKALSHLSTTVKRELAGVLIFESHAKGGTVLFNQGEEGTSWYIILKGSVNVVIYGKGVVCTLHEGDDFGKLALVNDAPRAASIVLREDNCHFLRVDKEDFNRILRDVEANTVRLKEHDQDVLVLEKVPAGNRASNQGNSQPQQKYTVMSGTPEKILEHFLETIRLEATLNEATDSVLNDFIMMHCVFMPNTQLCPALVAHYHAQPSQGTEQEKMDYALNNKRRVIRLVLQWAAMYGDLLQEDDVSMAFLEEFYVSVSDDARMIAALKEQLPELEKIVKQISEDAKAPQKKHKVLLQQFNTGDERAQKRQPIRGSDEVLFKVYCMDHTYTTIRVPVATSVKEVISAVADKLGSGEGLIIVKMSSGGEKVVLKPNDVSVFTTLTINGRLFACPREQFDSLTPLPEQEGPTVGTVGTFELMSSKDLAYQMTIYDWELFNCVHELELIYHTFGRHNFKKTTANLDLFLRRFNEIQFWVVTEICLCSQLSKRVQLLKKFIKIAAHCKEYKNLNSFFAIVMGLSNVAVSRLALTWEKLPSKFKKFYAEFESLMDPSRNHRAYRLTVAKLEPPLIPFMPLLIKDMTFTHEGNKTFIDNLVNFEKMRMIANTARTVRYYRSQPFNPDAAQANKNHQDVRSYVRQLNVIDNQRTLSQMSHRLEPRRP", "assay": "qHTS for Antagonist of cAMP-regulated guanine nucleotide exchange factor 2 (EPAC2): primary screen; further: nearly all actives have a fitted effect of over 45% in size", "conditions": "EPAC2 GEF exchange of Rap1B-BODIPY-GDP, fluorescence; activity, negative = inhibition: at 114 µM (top of the series) unless noted", "values": [{"smiles": "Cc1cc(SCc2ccc([N+](=O)[O-])cc2)nc(=O)[nH]1", "Potency": "inactive"}, {"smiles": "CC(=O)Nc1ccc(S(=O)(=O)Oc2ccccc2N2CCCCC2)cc1", "Potency": "inconclusive [inhibitor, partial curve]"}, {"smiles": "CC(C)Cc1ccc(-c2ccc3nccn3c2)cc1", "Potency": "inconclusive [inhibitor, partial curve]"}, {"smiles": "O=C(CSc1nc(-c2ccc(F)cc2)cs1)NCCN1C(=O)CSC1=O", "Potency": "inconclusive [inhibitor, single point]"}, {"smiles": "COc1ccc(OC)c(CC(=O)NC(c2ccccc2)c2ccccc2)c1", "Potency": "inactive"}, {"smiles": "Cc1nc(Nc2cnc(/C=C/c3cc(C(=O)Nc4cccc(C(F)(F)F)c4)ccc3C)cn2)cc(N2CCNCC2)n1", "Potency": "active: 50.1 µM"}, {"smiles": "COC(=O)[C@@]12C[C@@H](CC(=O)NCc3ccc(C)o3)C(=O)N(CCc3ccc(OC)c(OC)c3)C1=CCC(C)(C)C2", "Potency": "inconclusive [inhibitor, full curve, poor fit]"}, {"smiles": "CC(C)Sc1snnc1-c1ccccc1", "Potency": "inconclusive [inhibitor, full curve, poor fit]"}, {"smiles": "COc1ccc(NC(=S)NNc2ccc(S(=O)(=O)Nc3ccccc3C(=O)O)cc2[N+](=O)[O-])cc1", "Potency": "inconclusive [inhibitor, partial curve, poor fit]"}, {"smiles": "CC(=O)NC(c1cccs1)c1cc(Br)c2cccnc2c1O", "note": "(stereo unspecified)", "Potency": "inconclusive [inhibitor, full curve]"}, {"smiles": "CCOC(=O)/C(C#N)=C/c1cc2ccccc2nc1N1CCCCC1", "Potency": "inconclusive [inhibitor, full curve, poor fit]"}, {"smiles": "O=C(O)C(=O)/C(=C\\c1cccc(Cl)c1)c1ccc2ccccc2n1", "Potency": "inconclusive [inhibitor, partial curve]"}, {"smiles": "C=C(C)COC(=O)c1ccccc1C(=O)OCC1(C)CO1", "note": "(stereo unspecified)", "Potency": "inactive"}, {"smiles": "CCc1ccc([C@H]2C(C(=O)O)=C[C@@H](C(C)(C)C)N2S(=O)(=O)c2ccc(C)cc2)cc1", "Potency": "inconclusive [inhibitor, full curve]"}, {"smiles": "COc1cc(/C=C2\\SC(=O)NC2=O)ccc1Oc1ccc([N+](=O)[O-])cc1[N+](=O)[O-]", "Potency": "inconclusive [inhibitor, partial curve]"}, {"smiles": "NS(=O)(=O)c1ccc(CCNS(=O)(=O)c2ccccc2)cc1", "Potency": "inactive"}, {"smiles": "COC(=O)c1nn(-c2ccccc2)c(Sc2ccc(OC)cc2)c1/C=N/O", "Potency": "inconclusive [inhibitor, single point]"}, {"smiles": "O=C(Nc1ccc(Br)cc1)c1cc([N+](=O)[O-])cc([N+](=O)[O-])c1", "Potency": "inactive"}, {"smiles": "O=C(Cc1ccsc1)NCc1ccccc1F", "Potency": "inactive"}, {"smiles": "O=C1/C(=C/C=C/c2ccccc2)Oc2c1ccc(O)c2CN1CCN(CCO)CC1", "Potency": "inactive"}, {"smiles": "COC(=O)C1=C[C@@H](C(=O)OC)[C@@H]2C3=C(C(=O)[C@]2(C)NC(=O)c2ccccc2)[C@H](C)n2c(=O)n(C)c(=O)n2[C@@H]3C1", "Potency": "inactive"}, {"smiles": "COC(=O)c1sc2nc3c(cc2c1N)COC(C)(C)C3", "Potency": "inactive"}, {"smiles": "NC1=C(Cl)C(=O)c2ccc(S(N)(=O)=O)cc2C1=O", "Potency": "inconclusive [inhibitor, partial curve]"}, {"smiles": "NC(=O)CSc1nc2c(sc3ccccc32)c(=O)n1CCCC(=O)NCC1CCCO1", "note": "(stereo unspecified)", "Potency": "inactive"}, {"smiles": "CC(C)OP(=O)(c1ccc(N(C)C)cc1)C(Nc1ccccc1)c1ccccc1", "note": "(stereo unspecified)", "Potency": "inconclusive [inhibitor, partial curve]"}, {"smiles": "COc1ccc(CC2(CO)CCN(C(=O)NCc3ccccc3)CC2)cc1", "Potency": "inconclusive [inhibitor, single point]"}, {"smiles": "O=C(O)c1ccccc1/C=N/Nc1ccc(S(=O)(=O)Nc2ccc(Cl)cc2)cc1[N+](=O)[O-]", "Potency": "inconclusive [inhibitor, partial curve]"}, {"smiles": "Cc1noc(C)c1C(=O)Nc1nc2ccc(S(C)(=O)=O)cc2s1", "Potency": "inactive"}, {"smiles": "COc1cc(OC)c(C2Nc3cccc4cccc(c34)N2)c(OC)c1", "Potency": "inconclusive [inhibitor, partial curve]"}, {"smiles": "CCCCN(CC(O)COc1cccc(C)c1)CC(O)COc1cccc(C)c1", "note": "(stereo unspecified)", "Potency": "inconclusive [inhibitor, partial curve]"}, {"smiles": "CCOc1cc(/C=C(\\C#N)C(=O)Nc2cccc(C(=O)O)c2)ccc1OCc1ccc(Br)cc1", "Potency": "inconclusive [inhibitor, single point]"}, {"smiles": "COc1cc(-c2c(C#N)c(N)nc3c2CCCC3)cc(OC)c1OC", "Potency": "inconclusive [inhibitor, partial curve]"}, {"smiles": "CC(C)N(C(=O)COC(=O)[C@@H]1CC(O)CN1S(=O)(=O)c1ccccc1[N+](=O)[O-])C(C)C", "note": "(stereo partly specified)", "Potency": "inactive"}, {"smiles": "COc1ncccc1-c1nnn(-c2ccccc2Br)n1", "Potency": "inconclusive [inhibitor, full curve, poor fit]"}, {"smiles": "Cc1ccc(OCCN2C(=O)NC3(CCc4ccccc4C3)C2=O)cc1", "note": "(stereo unspecified)", "Potency": "inconclusive [inhibitor, single point]"}, {"smiles": "COc1ccc(Cl)cc1C(=O)Nc1ccccc1N1CCN(C(=O)C(C)C)CC1", "Potency": "inactive"}, {"smiles": "CC1CCC(NC(=O)c2ccc3nc[nH]c3c2)CC1", "note": "(stereo unspecified)", "Potency": "inactive"}, {"smiles": "CCOC(=O)C1=C(C)NC(C)=C(C(=O)OCC)C1c1ccc(C)o1", "Potency": "inconclusive [inhibitor, full curve]"}, {"smiles": "CCN(Cc1ccc(OC)c(F)c1)C(=O)c1cc2ccccc2o1", "Potency": "inconclusive [inhibitor, full curve, poor fit]"}, {"smiles": "COC(=O)N[C@H](CC(C)=O)c1cccc(C(F)(F)F)c1", "Potency": "inconclusive [inhibitor, partial curve]"}, {"smiles": "O=C(CN(Cc1ccccc1)S(=O)(=O)c1ccc(Br)cc1)N/N=C/c1ccccc1C(=O)O", "activity, negative = inhibition": "inconclusive: -20.9% [inhibitor]"}, {"smiles": "O=C(CCN1C(=O)/C(=C\\C=C\\c2ccccc2)SC1=S)Nc1ccccc1C(=O)O", "Potency": "inconclusive [inhibitor, partial curve]"}, {"smiles": "O=C(c1cccc(NC2=NC3CS(=O)(=O)CC3S2)c1)N1CCN(c2cccc(Cl)c2)CC1", "note": "(stereo unspecified)", "Potency": "inactive"}, {"smiles": "CS(=O)(=O)Nc1ccc(C2=NN(C(=O)c3cccc(F)c3)C(c3cccs3)C2)cc1", "note": "(stereo unspecified)", "Potency": "inconclusive [inhibitor, full curve]"}, {"smiles": "Cc1c(OCC(=O)Nc2cccnc2)ccc2c3c(c(=O)oc12)CCC3", "Potency": "inactive"}, {"smiles": "O=C(O)c1cc(S(=O)(=O)N2CC=C(c3ccccc3)CC2)ccc1O", "Potency": "inconclusive [inhibitor, partial curve]"}, {"smiles": "Cc1ccc2c(c1)c1c3n2CCN(C(=O)C2CC2)C3CCC1", "note": "(stereo unspecified)", "Potency": "inconclusive [inhibitor, full curve]"}, {"smiles": "C=CCn1c(Oc2ccccc2F)nc2c1c(=O)n(C)c(=O)n2C", "Potency": "inconclusive [inhibitor, partial curve]"}, {"smiles": "Cc1cccc(C(=O)Nc2ccc(NC(=O)CN3CCOCC3)cc2)c1", "Potency": "inactive"}, {"smiles": "O=c1c2c3c(sc2[nH]c(=S)n1Cc1ccco1)CCC3", "Potency": "inactive"}, {"smiles": "O=C(N/N=C/c1c(O)n(-c2ccccc2Cl)c(=O)c2ccccc12)c1cccnc1", "Potency": "inactive"}, {"smiles": "COC(=O)c1cn(C(=O)c2ccccc2Cl)c2ccccc12", "Potency": "active: 28.2 µM"}, {"smiles": "OC(c1ccccc1)(c1nc(-c2cccc(F)c2)cs1)C(F)(F)F", "note": "(stereo unspecified)", "Potency": "inconclusive [inhibitor, full curve]"}, {"smiles": "COc1ccc(C=O)cc1C1=CC(=O)C[C@H](c2ccc(Cl)cc2)C1", "Potency": "inconclusive [inhibitor, full curve, poor fit]"}, {"smiles": "CC(C)(C)c1ccc(NS(=O)(=O)c2ccc(N)cc2)cc1", "Potency": "inconclusive [inhibitor, partial curve]"}, {"smiles": "COC(=O)c1ccc(Cn2cnc3c(cnn3-c3ccc(Cl)cc3)c2=O)o1", "Potency": "inactive"}, {"smiles": "S=c1[nH]nc(C2CCCCC2)n1/N=C/c1ccccc1Cl", "Potency": "inconclusive [inhibitor, single point]"}, {"smiles": "Cc1ccc(C(=O)c2cc([N+](=O)[O-])ccc2N2CC(C)OC(C)C2)cc1", "note": "(stereo unspecified)", "Potency": "inconclusive [inhibitor, full curve]"}, {"smiles": "CCc1nnc(NC(=O)c2nc(S(=O)(=O)Cc3ccc(C)cc3)ncc2Cl)s1", "Potency": "inactive"}, {"smiles": "O=C1NC(=S)SC1=Cc1cccs1", "Potency": "inconclusive [inhibitor, partial curve]"}, {"smiles": "CC1=C(C(=O)OC(C)C)C(c2cccs2)C(C(=O)OC(C)C)=C(C)N1", "Potency": "inconclusive [inhibitor, partial curve]"}, {"smiles": "Cc1cc(Br)ccc1NC(=O)CN(C)Cc1cccs1", "Potency": "inconclusive [inhibitor, full curve]"}, {"smiles": "O=C1C=C(Nc2ccccc2O)c2ccccc2C1=O", "Potency": "inactive"}, {"smiles": "O=C(NCCc1ccccc1F)c1cccc2cccnc12", "Potency": "inactive"}, {"smiles": "CCOC(=O)c1c(C)c[nH]c1C", "Potency": "inactive"}, {"smiles": "O=C(NCCOc1ccc(Cl)cc1)c1ccco1", "Potency": "inconclusive [inhibitor, full curve, poor fit]"}, {"smiles": "O=C(NC(=S)Nc1ccccc1N1CCOCC1)c1ccc(Br)cc1", "Potency": "inactive"}, {"smiles": "O=C1NN(c2ccc(F)c(Cl)c2)C(=O)/C1=C\\c1cccc(OC(=O)c2cccs2)c1", "Potency": "inactive"}, {"smiles": "Cc1cccc(-n2c(=S)[nH]c3sc4c(c3c2=O)CCc2ccccc2-4)c1", "Potency": "inactive"}, {"smiles": "Cc1nc2ccccc2n1Cc1ccc(Br)cc1", "Potency": "inconclusive [inhibitor, partial curve, poor fit]"}, {"smiles": "Cc1cc(OC(C)C(=O)NCCc2c[nH]c3ccccc23)c2c(C)cc(=O)oc2c1", "note": "(stereo unspecified)", "Potency": "inconclusive [inhibitor, partial curve]"}]}]}
